The structures appear in SMILES notation. Screen size: about 48,000 compounds; about 1,200 (2.5%) were called active. Roughly 2% stayed inconclusive and do not appear here.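 The calls were made as follows: active = activation of at least 60% and not above a set upper limit (about 1 call in 100 departs from these limits); inconclusive = activation of 40% to 60%, or above that upper limit; inactive = activation under 40%.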 Some of the results follow.

Chain of UniProt O75388 (O75388 whole entry, looked up, the tested form may be a part): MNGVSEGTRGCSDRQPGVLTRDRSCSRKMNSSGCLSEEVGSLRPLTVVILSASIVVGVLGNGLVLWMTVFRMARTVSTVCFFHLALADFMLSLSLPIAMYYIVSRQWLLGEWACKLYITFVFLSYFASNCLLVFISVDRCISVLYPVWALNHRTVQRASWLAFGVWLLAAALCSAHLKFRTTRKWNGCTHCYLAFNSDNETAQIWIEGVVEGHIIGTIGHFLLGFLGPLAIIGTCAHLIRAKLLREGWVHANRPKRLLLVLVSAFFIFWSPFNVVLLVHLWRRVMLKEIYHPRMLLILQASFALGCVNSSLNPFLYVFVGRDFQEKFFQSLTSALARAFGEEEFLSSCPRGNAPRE

In the experiment the target is Probable G-protein coupled receptor 32 (Homo sapiens) (UniProt O75388). Kind of experiment: qHTS for Agonists of Human Resolvin D1 Receptor DRV1. Also: 0% is about no effect. The settings on record: CHO-K1 GPR32 beta-arrestin PathHunter luminescence, 90 min; at 76.9 µM; stronger effect = higher value; zero percent set by DMSO-only wells. In short, it runs like this:
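GPR32 activation in stably transfected CHO-K1 cells, detected as beta-arrestin recruitment by enzyme-fragment complementation. Compound exposure: 90 min, 37 °C.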
In general terms: Quantitative high-throughput screening tests each substance at several concentrations.
Regarding `Cc1ccccc1CNC(=O)CCCn1ncn2c(cc3occc32)c1=O`, the activation is inactive: -18.4%.
With `Cc1cccc(-n2nnc(-c3nc(-c4cccs4)no3)c2N)c1C` the figure was inactive: -1.17%.
With `COc1ccccc1Nc1ncc2c(n1)CCN(CC(C)C)C2` the figure was inactive: -4.13%; with `COCCNC(=O)c1ccc2c(c1)NC(=O)C(CS(=O)(=O)Cc1ccc(F)cc1Cl)N2` (centres undefined), inactive: -20.3%.
In the case of `COc1cccc(CNC(=O)c2ccc3oc(=O)n(Cc4ccccc4)c3c2)c1`, the activation is inactive: 8.48%.
As for `COc1ccc(NC(=O)c2c(NC(=O)c3cccc(C)c3)sc3c2CCC3)cc1`, the figure is inactive: 4.68%; as for `Cc1ccc(CCNC(=O)C2COc3ccccc3C2)cc1` (centres undefined), inactive: -14.7%; as for `Oc1c(C(c2ccc(F)cc2)N2CCCC2)sc2nc(-c3ccco3)nn12` (centres undefined), inactive: 17.9%.
As for `Cc1ccc(S(=O)(=O)c2cn(C)c3cc(N4CCOCC4)c(F)cc3c2=O)c(C)c1`, the figure is inactive: -8.72%.
With `COc1ccc(N2CCN(c3ncnc4c3nc3n4CCCCC3)CC2)cc1` the figure was inactive: 12.6%; with `Cc1ccc(Cl)cc1-n1c(=O)c2sc3ccccc3c2n(CC(=O)NC2CCCC2)c1=O`, inactive: -49.3%; with `O=C(Oc1ccccc1C(=O)O)c1ccccc1O`, inactive: 7.59%.
`O=C(O)c1ccc(S(=O)(=O)N(Cl)Cl)cc1`: the activation is inactive: -4.74%.
With `Cc1ccc2c(c1)-c1onc(C(=O)N3CCN(c4cc(C)ccc4C)CC3)c1CO2` the figure was inactive: -12.7%; with `COc1ccccc1CNS(=O)(=O)c1c(C(=O)N2CCC(C)CC2)c(C)n(C)c1C`, inactive: -16.4%; with `Cc1ccc(CCNC(=O)Cn2ncc3c([nH]c4ccccc43)c2=O)cc1`, inactive: -12.9%.
Regarding `Cc1cc(C)n(-c2nc3cc(Cl)ccc3nc2N2CCN(c3cccc(C)c3C)CC2)n1`, the activation was inactive: -11.1%.
As for `COc1ccc(C)cc1NC(=O)CSc1nc(=O)n(Cc2cccnc2)c2c1CCC2`, the figure is inactive: 5.72%.
In the case of `CCCCCN1C(C(=O)c2ccccc2)=C(NC(=O)c2ccc(OC)c(OC)c2)c2ccccc2S1(=O)=O`, the activation was inactive: -1.22%.
As for `Clc1ccc(-c2ccc(CNCCSc3nnnn3-c3ccccc3)o2)cc1`, the figure is inactive: 1.31%; as for `O=C(CCn1c(=O)c2cccn2c2ccc(F)cc21)NCCc1ccc(Cl)cc1`, inactive: -30.3%.
As for `COc1ccc(NC(=O)N2CCC(CN3CCCC3)CC2)c(OC)c1`, the figure is inactive: -6.51%; as for `O=C(C1CCCN(S(=O)(=O)c2cccc3nonc23)C1)N1CCN(c2ccccc2F)CC1` (centres undefined), inactive: 15.8%; as for `COC(=O)c1ccccc1NC(=O)CSc1cc(-c2ccccc2)nc(C)n1`, inactive: -16.9%.

The record behind these values is PubChem BioAssay AID1346428 (National Center for Advancing Translational Sciences (NCATS), 2018).
